The other results are listed elsewhere or left out. Some results are limits rather than exact numbers.

The text below walks through data of a collection of fitness landscapes (doi:10.1126/science.1257360).

To fix the notation:
B1: PhoQ; a variant is named by its letters at X, in order, P23837 (parent)
chain: MKKLLRLFFPLSLRVRFLLATAAVVLVLSLAYGMVALIGYSVSFDKTTFRLLRGESNLFYTLAKWENNKLHVELPENIDKQSPTMTLIYDENGQLLWAQRDVPWLMKMIQPDWLKSNGFHEIEADVNDTSLLLSGDHSIQQQLQEVREDDDDAEMTHSVAVNVYPATSRMPKLTIVVVDTIPVELKSSYMVWSWFIYVLSANLLLVIPLLWVAAWWSLRPIEALAKEVRELEEHNRELLNPATTRELTSLVRNLNRLLKSERERYDKYRTTLTDLTHSLKTPLXXLQXXLRSLRSEKMSVSDAEPVMLEQISRISQQIGYYLHRASMRGGTLLSRELHPVAPLLDNLTSALNKVYQRKGVNISLDISPEISFVGEQNDFVEVMGNVLDNACKYCLEFVEISARQTDEHLYIVVEDDGPGIPLSKREVIFDRGQRVDTLRPGQGVGLAVAREITEQYEGKIVAGESMLGGARMEVIFGRQHSAPKDE

Variants of B1 are the subject of this experiment. Nature of the experiment: enrichment ratio after two sorts for PhoP signalling (ratio (wild type AVST 3.29)); higher = more functional. The conditions noted are these: with PhoP (E. coli).
For RILM, the enrichment ratio was at most 0.25.
In the case of QFMT, the enrichment ratio was at most 0.25.
With ISLW, the enrichment ratio is at most 0.25.
Consider PACM, for which the enrichment ratio was at most 0.25.
The result for VWDL reads at most 0.25; that for MIRY, at most 0.25; that for FIYY, at most 0.25.
With GHLP, the enrichment ratio is at most 0.25.
In the case of DIAS it was at most 0.25; in that of MYCQ, at most 0.25; in that of LWVW, at most 0.25.
For GRYA, the enrichment ratio is at most 0.25.
As for KGCQ, the enrichment ratio was at most 0.25.
With DPPP, the enrichment ratio was at most 0.25.
The result for MGWA reads at most 0.25.
Turning to MMGK, the enrichment ratio is at most 0.25.
Consider LGHD, for which the enrichment ratio was at most 0.25.
In the case of RFTT it was at most 0.25.
In the case of MEMT it was at most 0.25; in that of DFMQ, at most 0.25; in that of WWRR, at most 0.25.
In the case of QIDP it was at most 0.25.
On to CFNC, for which the enrichment ratio is at most 0.25.
The result for PHFR reads at most 0.25; that for STLH, 12.2.
In the case of SEVT, the enrichment ratio was 16.8.
For the variant PPTH, the enrichment ratio is at most 0.25.
As for RDVL, the enrichment ratio is at most 0.25.
In the case of DMKS it was at most 0.25; in that of QHIW, at most 0.25; in that of GFPE, at most 0.25.
In the case of MYCM it was at most 0.25; in that of QGGI, 6.02; in that of GKFH, at most 0.25.
For HGGC, the enrichment ratio is at most 0.25.
The result for MGEQ reads at most 0.25.
Take TQEM: the enrichment ratio is at most 0.25.
As for WKVA, the enrichment ratio was at most 0.25.
In the case of LQNN it was at most 0.25; in that of DKNY, at most 0.25.
The result for TVIA reads at most 0.25.
In the case of MLWK it was at most 0.25; in that of GGLA, 9.6.
On to PCEM, for which the enrichment ratio is at most 0.25.
Consider VEAW, for which the enrichment ratio is at most 0.25.
For DWDC, the enrichment ratio is at most 0.25.
The result for VDVN reads at most 0.25; that for WVFT, at most 0.25; that for KCIF, at most 0.25.
NDVC: the enrichment ratio was at most 0.25.
As for WTNM, the enrichment ratio was at most 0.25.
The result for QHLG reads at most 0.25.
For the variant VAEP, the enrichment ratio was at most 0.25.
Take NRKM: the enrichment ratio was at most 0.25.
The result for IGCV reads at most 0.25.
The result for SILS reads 4.95; that for PKNL, at most 0.25.
Take RFPC: the enrichment ratio was at most 0.25.
In the case of WAFE it was at most 0.25; in that of RFCC, at most 0.25; in that of SMSW, at most 0.25.
The result for MCYK reads at most 0.25.
In the case of EDYR it was at most 0.25; in that of NMDW, at most 0.25.
Take ADWC: the enrichment ratio was at most 0.25.
PHLV: the enrichment ratio was at most 0.25.
In the case of VFCN it was at most 0.25; in that of AGLY, 5.76; in that of GSCL, 21.5.
In the case of LPDT it was at most 0.25; in that of SEYV, 5.27; in that of PLKT, at most 0.25.
In the case of QDTM it was at most 0.25; in that of NAMK, at most 0.25.
Turning to ERQC, the enrichment ratio is at most 0.25.
In the case of GLRA it was at most 0.25; in that of GPCS, at most 0.25.
As to PEYE, the enrichment ratio is at most 0.25.
In the case of RDQL it was at most 0.25.
Consider QVIP, for which the enrichment ratio worked out at 0.813.
The result for DFWN reads at most 0.25; that for VLMQ, at most 0.25; that for DSSH, at most 0.25.
In the case of LGWT it was at most 0.25; in that of DRMI, at most 0.25; in that of NFLC, at most 0.25.
In the case of WYDS it was at most 0.25; in that of FMHV, at most 0.25; in that of DIPH, at most 0.25.
Turning to CFNV, the enrichment ratio is at most 0.25.
As for WAPL, the enrichment ratio is at most 0.25.
In the case of LWLY it was at most 0.25; in that of WNHA, at most 0.25.
The result for MHFD reads at most 0.25.
The result for EFKD reads at most 0.25; that for QTLI, at most 0.25.
Regarding FVWF, the enrichment ratio is at most 0.25.
For DSFM, the enrichment ratio was at most 0.25.
FSGL: the enrichment ratio is at most 0.25.
In the case of TKPR it was at most 0.25; in that of LRKR, at most 0.25.
In the case of AYEH it was at most 0.25.
With GQNK, the enrichment ratio is at most 0.25.
The result for VYFA reads at most 0.25.
The result for MANR reads at most 0.25; that for KAGI, at most 0.25.
Turning to WQIL, the enrichment ratio was at most 0.25.
With WLIP, the enrichment ratio was at most 0.25.
In the case of HKGI it was at most 0.25; in that of DSMW, at most 0.25.
The result for FYGM reads at most 0.25.
In the case of QDST it was at most 0.25; in that of WNSK, at most 0.25; in that of AQYA, at most 0.25.
YTAA: the enrichment ratio is at most 0.25.
As for YLCC, the enrichment ratio was 0.642.
As for ALTW, the enrichment ratio is 10.5.
In the case of NHAI it was at most 0.25; in that of KTEE, at most 0.25; in that of YSMC, 2.37.
The result for TRWP reads at most 0.25; that for MIPN, at most 0.25.
The result for FIYS reads at most 0.25.
Take IDER: the enrichment ratio was at most 0.25.
In the case of ENPE it was at most 0.25; in that of NFKR, at most 0.25; in that of NTQK, at most 0.25.
In the case of LKDE it was at most 0.25; in that of FDAT, at most 0.25; in that of NMYA, at most 0.25.
Regarding LMKM, the enrichment ratio is at most 0.25.
The result for DTMR reads at most 0.25; that for GLAF, 4.74; that for KFKL, at most 0.25.
In the case of MEVW it was at most 0.25; in that of AEFP, at most 0.25.
Turning to EVVD, the enrichment ratio was at most 0.25.
In the case of RSMF it was at most 0.25.
For NHPN, the enrichment ratio was at most 0.25.
For the variant DCEQ, the enrichment ratio was at most 0.25.
MWFQ: the enrichment ratio is at most 0.25.
HLEK: the enrichment ratio was at most 0.25.
In the case of ARQR it was at most 0.25; in that of RLDG, at most 0.25.
On to FAWF, for which the enrichment ratio is at most 0.25.
In the case of RKGR it was at most 0.25; in that of PDWS, at most 0.25.
In the case of LYDL it was at most 0.25.
The result for LNTH reads at most 0.25.
For GCKW, the enrichment ratio was at most 0.25.
The result for QTGL reads 10.7; that for KVGF, at most 0.25.
Take NSAG: the enrichment ratio is at most 0.25.
